Reference: the RNAGym collection of RNA variant scans (doi:10.1093/nar/gkz1192)
The source gives no read counts; variants with many changes may rest on few reads.

B1: CPEB3 Ribozyme (parent)
chain: UAACAGGGGGCCACAGCAGAAGCGUUCACGUCGCAGCCCCUGUCAGAUUCUGGUGAAUCUGCGAAUUCUGCUGUAUAUCUC

Variants of: B1
Assay: self-cleavage, relative activity (ratio to wild type); higher = more cleavage; in vitro, sequencing
In short: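 After error-prone PCR and barcoding, CPEB3 ribozyme mutant libraries were transcribed with T7 RNA polymerase at 37°C for 5 hours, then given 15 min with DNase I before an EDTA stop, and they cleaved during both steps. Reverse transcription with template switching preceded Illumina sequencing. Relative activity divides a variant's cleaved/total read fraction by the unmutated ribozyme's. At least 5 reads were required per variant, and three batches were averaged.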

Question: Which self-cleavage does the source give for UAACAGGGGGCCACAGCAGAAGGGUUCACGUCGCAGCCCCUGCCAGAUUCUGGUGUAUCUGCGAAUUCCGCUGUAUAUCUC [C23G U43C A56U U69C] here?
Answer: The self-cleavage was 0.11.

Question: Which self-cleavage does the source give for UAACAGGGGGCCACAGCAGAAGGGUUCACGUCGCAGCCCCUGCCAGAUUCUGGUGAAUCUGCGAAUUCUGCUGUAAAUCUC [C23G U43C U76A] here?
Answer: Its self-cleavage is 0.07.

Question: Which self-cleavage does the source give for UAACAGGGGGCCACAGCAGAAGGGUUCACGUCGCAGCCCCUGUCAGACUCUGGUGGAUCUGCGAAUUCUGCUGUAUAUCUC [C23G U48C A56G] here?
Answer: Its self-cleavage is 0.16.

Question: Which self-cleavage does the source give for UAACAGGGGGCCACAGCAGAAGGGUUCACGUCGCAGCCCCUGUCAGAUCCUGGUGAGUCUGCGAAUUCCGCUGUAUACCUC [C23G U49C A57G U69C U78C] here?
Answer: Its self-cleavage is 0.06.

Question: With UAACAGGGGGCCACAGCAGAAGGGUUCACGUCGCAGCCCCUGUCAGAUCCUGGCUGAUCUGCGAAUUCUGCUGUAUAUCUC [C23G U49C U54C G55U A56G] as the variant, how does the self-cleavage read?
Answer: The self-cleavage was 0.06.

Question: Which self-cleavage does the source give for UAACAGGGGGCCACAGCAGAAGUGUUCGCGUCGCCGCCCCUGUCAGAUUCUGGUGAAUCUGCGAAUUCUGCUGUAUAUCUC [C23U A28G A35C] here?
Answer: The self-cleavage was 0.11.

Question: Which self-cleavage does the source give for UAACAGGGGGCCACAGCAGAAGUGUUCGCGUCGCAGCCCCUGUCAGAUUCUGGUGAGUCUGCGAAUUCUGCAGUAUAUCUC [C23U A28G A57G U72A] here?
Answer: The self-cleavage was 0.08.

Question: With UAACAGGGGGCCACAGCAGAAGUGUUCGCGUCGCAGCCCCUGUCAGAUUCUGGUGAGUCUGCGAAUUCUGCUGUAUAUCCC [C23U A28G A57G U80C] as the variant, how does the self-cleavage read?
Answer: The self-cleavage was 0.2.

Question: For UAACAGGGGGCCACAGCAGAAGUGUUCGCGCCGCAGCCCCUGUCAGAUUCUGGUGAACCUGCGAAUUCUGCUGUAUAUCUC [C23U A28G U31C U58C], which self-cleavage is on record?
Answer: The self-cleavage was 0.04.

Question: With UAACAGGGGGCCACAGCAGAAGUGUUCGCGUCGCAGCCCCCGUCUGAUUCUGGUGAAUCCGCGAAUUCUGCUGCAUAUCUC [C23U A28G U41C A45U U60C U74C] as the variant, how does the self-cleavage read?
Answer: Its self-cleavage is 0.3.

Question: Which self-cleavage does the source give for UAACAGGGGGCCACAGCAGAAGUGUUCACGUCGCCGCCCCUGCCAGAUUCUCGUGAAACUGCUAAUUCUGCUGUAUAUCUC [C23U A35C U43C G52C U58A G63U] here?
Answer: The self-cleavage was 0.07.

Question: For UAACAGGGGGCCACAGCAGAAGUGUUCACGUCGCGGCCCCUGUCUGAUUCUGGCGAAUCUGCGGAUUCCGCUGUAUAUCCC [C23U A35G A45U U54C A64G U69C U80C], which self-cleavage is on record?
Answer: Its self-cleavage is 0.11.

Question: With UAACAGGGGGCCACAGCAGAAGUGUUCACGUCGCGGCCUCUGUCAGAUUCUGGUGAAUCUGCGAAUUCUGCUGUAUAUCUC [C23U A35G C39U] as the variant, how does the self-cleavage read?
Answer: Its self-cleavage is 0.96.

Question: Which self-cleavage does the source give for UAACAGGGGGCCACAGCAGAAGUGUUCACGUCGCGGCCCCUGUCAGAUUCUGGUGAAUCUGCGAAUCCUGCUGUAUAUCUC [C23U A35G U67C] here?
Answer: Its self-cleavage is 0.13.

Question: Which self-cleavage does the source give for UAACAGGGGGCCACAGCAGAAGUGUUCACGUCGCGGCCCCUGUCAGAUUCUGGUGAAUCUGCGAAUUCUGCCGUAUAUCUC [C23U A35G U72C] here?
Answer: Its self-cleavage is 1.09.

Question: With UAACAGGGGGCCACAGCAGAAGUGUUCACGUCGCUGCCCCUGUCAGAUUCUGGUGAAUCCGCGAAUUCUGCUGUUUAUCUC [C23U A35U U60C A75U] as the variant, how does the self-cleavage read?
Answer: Its self-cleavage is 0.1.

Question: Which self-cleavage does the source give for UAACAGGGGGCCACAGCAGAAGUGUUCACGUCGCUGCCCCUGUCAGAUUCUGGUGAAUCUGCGAAUUCAGCUGUAUAUCUC [C23U A35U U69A] here?
Answer: The self-cleavage was 0.06.

Question: For UAACAGGGGGCCACAGCAGAAGUGUUCACGUCGCAGCCCCUGUCGGAAUCUGGUGAACCUGCGAAUUCUGCUGUAUACCUC [C23U A45G U48A U58C U78C], which self-cleavage is on record?
Answer: Its self-cleavage is 0.06.

Question: With UAACAGGGGGCCACAGCAGAAGUGUUCACGUCGCAGCCCCUGUCUGGUUCUGGUGAAUCUGCGAAUUCUGCGGUAUAUCUC [C23U A45U A47G U72G] as the variant, how does the self-cleavage read?
Answer: The self-cleavage was 0.1.

Question: Which self-cleavage does the source give for UAACAGGGGGCCACAGCAGAAGUGUUCACGUCGCAGCCCCUGUCUGAUUCUGGUGAAUCUGCGGAUUCCGCCGUAUAUCUC [C23U A45U A64G U69C U72C] here?
Answer: Its self-cleavage is 0.08.

Question: Which self-cleavage does the source give for UAACAGGGGGCCACAGCAGAAGUGUUCACGUCGCAGCCCCUGUCUGAUUCUGGUGAAUCUGCGAAUACCGCUGUAUACCUC [C23U A45U U67A U69C U78C] here?
Answer: Its self-cleavage is 0.06.

Question: With UAACAGGGGGCCACAGCAGAAGUGUUCACGUCGCAGCCCCUGUCUGAUUCUGGUGAAUCUGCGAAUUCUGCUGAAUAUCUC [C23U A45U U74A] as the variant, how does the self-cleavage read?
Answer: The self-cleavage was 0.24.

Question: With UAACAGGGGGCCACAGCAGAAGUGUUCACGUCGCAGCCCCUGUCAGUUUCUGGUGUAUCUGCGAAUUCUGCUGUAUAUCUC [C23U A47U A56U] as the variant, how does the self-cleavage read?
Answer: The self-cleavage was 0.16.

Question: Which self-cleavage does the source give for UAACAGGGGGCCACAGCAGAAGUGUUCACGUCGCAGCCCCUGUCAGAUUCUGGUGGGUCUGCGAAUUCCGCUGUAUAUCUC [C23U A56G A57G U69C] here?
Answer: Its self-cleavage is 0.13.

Question: For UAACAGGGGGCCACAGCAGAAGUGUUCACGUCGCAGCCCCUGUCAGAUUCUGGUGAGUCUGCGAACUCUGCUGCAUAUCUC [C23U A57G U66C U74C], which self-cleavage is on record?
Answer: Its self-cleavage is 0.3.

Question: With UAACAGGGGGCCACAGCAGAAGUGUUCACGUCGCAGCCCCUGUCAGAUUCUGGUGAUACUGCGAAACCUGCUGUAUAUCUC [C23U A57U U58A U66A U67C] as the variant, how does the self-cleavage read?
Answer: The self-cleavage was 0.09.

Question: For UAACAGGGGGCCACAGCAGAAGUGUUCACGUCGCAGCCCCUGUCAGAUUCUGGUGAAUCUGCGGACUCUGCUGUAUAUCUC [C23U A64G U66C], which self-cleavage is on record?
Answer: Its self-cleavage is 0.09.

Question: For UAACAGGGGGCCACAGCAGAAGUGUUCACGUCGCAGCCCCUGUCAGAUUCUGGUGAAUCUGCGGAUACCGCAGCAUAUCUC [C23U A64G U67A U69C U72A U74C], which self-cleavage is on record?
Answer: The self-cleavage was 0.08.

Question: With UAACAGGGGGCCACAGCAGAAGUGUUCAAGUCGCAGCCCCUGUCAGAUUCUGGUGAAUCCGCGAAUCCUGCUGUAUAUCUC [C23U C29A U60C U67C] as the variant, how does the self-cleavage read?
Answer: The self-cleavage was 0.13.

Question: Which self-cleavage does the source give for UAACAGGGGGCCACAGCAGAAGUGUUCACGUGGCAGCACCUGUCAGAUUCCGGUGAAUUUGCGAAUUCUGCUGUAUAUCUC [C23U C32G C38A U51C C59U] here?
Answer: The self-cleavage was 0.05.

Question: With UAACAGGGGGCCACAGCAGAAGUGUUCACGUUGCAGCCCCUGUCAGAUUCUGGUGAGUCUGCGAAUUCUGCUAUAUACCUC [C23U C32U A57G G73A U78C] as the variant, how does the self-cleavage read?
Answer: Its self-cleavage is 0.1.

Question: Which self-cleavage does the source give for UAACAGGGGGCCACAGCAGAAGUGUUCACGUCGUGGCCCCUGUCAGAUUCUGGUGUAUCUGCGAAUUCUGCAGUAUAUCUC [C23U C34U A35G A56U U72A] here?
Answer: Its self-cleavage is 0.05.

Question: For UAACAGGGGGCCACAGCAGAAGUGUUCACGUCGCAGCGCCAGUCAGAUUCUGGUGAGUCUGCGAAUUCUGCUGUAUAUCUC [C23U C38G U41A A57G], which self-cleavage is on record?
Answer: The self-cleavage was 0.12.

Question: Which self-cleavage does the source give for UAACAGGGGGCCACAGCAGAAGUGUUCACGUCGCAGCGCCUGUCAGAUUCUGGUGAAUCUGCGAAUUCCGCUGUAUAUCUC [C23U C38G U69C] here?
Answer: The self-cleavage was 0.18.
